The whole screen tested about 310,000 compounds, of which about 2,200 (0.71%) showed an effect of 50% or more. Effects have a minus sign here. Some of the results follow.
target: human ether-à-go-go-related gene (hERG) potassium channel (human, UniProt Q12809); test: primary screen, population patch clamp on CHO cells stably expressing hERG
Sequence (Q12809 whole entry, looked up): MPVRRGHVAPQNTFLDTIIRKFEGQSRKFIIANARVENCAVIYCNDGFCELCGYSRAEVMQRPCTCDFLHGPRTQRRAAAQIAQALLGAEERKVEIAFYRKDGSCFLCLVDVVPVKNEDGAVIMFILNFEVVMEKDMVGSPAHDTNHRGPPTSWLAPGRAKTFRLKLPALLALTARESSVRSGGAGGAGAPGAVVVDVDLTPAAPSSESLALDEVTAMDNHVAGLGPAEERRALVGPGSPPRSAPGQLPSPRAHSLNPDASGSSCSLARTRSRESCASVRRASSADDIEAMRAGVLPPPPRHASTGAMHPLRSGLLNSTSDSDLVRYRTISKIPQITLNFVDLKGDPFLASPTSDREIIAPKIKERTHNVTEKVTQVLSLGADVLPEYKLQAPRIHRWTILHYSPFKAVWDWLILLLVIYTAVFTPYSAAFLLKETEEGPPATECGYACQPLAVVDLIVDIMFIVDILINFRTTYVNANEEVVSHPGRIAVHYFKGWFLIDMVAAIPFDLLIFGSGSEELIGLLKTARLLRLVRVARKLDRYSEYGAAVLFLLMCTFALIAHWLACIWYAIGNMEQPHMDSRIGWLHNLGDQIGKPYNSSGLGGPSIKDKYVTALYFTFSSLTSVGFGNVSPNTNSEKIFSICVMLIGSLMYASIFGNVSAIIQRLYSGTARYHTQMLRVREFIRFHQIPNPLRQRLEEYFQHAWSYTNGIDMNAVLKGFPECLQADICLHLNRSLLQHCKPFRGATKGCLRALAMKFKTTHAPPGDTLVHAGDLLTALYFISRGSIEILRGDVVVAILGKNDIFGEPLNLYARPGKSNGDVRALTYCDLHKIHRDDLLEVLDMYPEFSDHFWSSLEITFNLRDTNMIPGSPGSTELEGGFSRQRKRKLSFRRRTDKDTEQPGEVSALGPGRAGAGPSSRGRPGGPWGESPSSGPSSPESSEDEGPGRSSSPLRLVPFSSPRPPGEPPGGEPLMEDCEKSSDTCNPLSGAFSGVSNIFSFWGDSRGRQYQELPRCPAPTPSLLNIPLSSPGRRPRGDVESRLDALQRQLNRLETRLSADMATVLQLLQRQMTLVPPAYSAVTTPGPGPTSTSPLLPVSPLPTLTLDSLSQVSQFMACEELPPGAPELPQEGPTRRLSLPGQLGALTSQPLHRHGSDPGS

Compound	hERG current change (%, negative = inhibition) at 1uM
CC(=O)N1CCN(c2ccc(NC(=O)c3cccc([N+](=O)[O-])c3)cc2)CC1	14.6%
CCC(CC)NC(=O)c1ccccc1Oc1ccccc1	1.49%
CCOC(=O)C1=C(C)OC(N)=C(C(=O)OCC)C1c1cccnc1 (centres unmarked)	6.31%
O=C(Cc1cccc(C(F)(F)F)c1)Nc1ccccc1	5.63%
CCSc1nnc(NC(=O)c2ccc3c(c2)OCO3)s1	-2.52%
CCc1ccccc1N1CSC2=C(C#N)C(c3cc(OC)c(OC)cc3OC)CC(=O)N2C1 (centres unmarked)	-4.38%
O=C(COc1ccc(Cl)cc1Cl)NN1C(=O)/C(=C\c2ccc(Cl)cc2)SC1=S	8.23%
Cc1nnc(SCC(=O)N2CCc3ccccc32)s1	10.1%
CC(=O)NCC(=O)NC1CC(C)(C)Cc2c1cnn2-c1ccccc1 (centres unmarked)	13.1%
Fc1ccc(-c2nnc(-c3ccc(Cl)cc3)o2)cc1	10.8%
CCN(CC)S(=O)(=O)c1ccc(N2CC(C(=O)NCCc3ccc(Cl)cc3)CC2=O)cc1 (centres unmarked)	4.52%
O=Cc1cccn1-c1cccnc1	0.633%
Cc1cc(C)cc(N(C(=O)c2snc(C(N)=O)c2N)C(C(=O)NCC2CCCO2)c2ccc(C)o2)c1 (centres unmarked)	9.26%
Cc1cc(=O)oc2cc(OC(C)C(=O)NCC3CCCO3)ccc12 (centres unmarked)	16.6%
CCCCOC(=O)C(C#N)c1nc2ccccc2nc1N1CCOCC1 (centres unmarked)	-5.34%
COc1nonc1NCn1nc(C)cc1C	11.5%
Cc1nn(C)cc1C(=O)Nc1cc(Oc2ccc(Cl)cc2)cc([N+](=O)[O-])c1	-7.06%
CNC(=O)c1[nH]cnc1C(=O)N[C@@H](CC(C)C)C(=O)OC(C)(C)C	9.84%
N/C(=N\OC(=O)CCCOc1ccccc1)c1ccncc1	9.35%
CN(C(=O)C1CCN(S(=O)(=O)c2cccs2)CC1)C1CCCCC1	3.01%
O=C(c1cc2cc(Br)ccc2o1)N1CCOCC1	6.86%
CCn1c(=O)c2sccc2n2c(CCCC(=O)NCc3cccnc3)nnc12	7.95%

Compound	hERG current change (%, negative = inhibition) at 1uM
Cc1ccc2[nH]c3c(c2c1)CN(C(=O)CN1C[C@H]2C[C@@H](C1)c1cccc(=O)n1C2)CC3	3.06%
N#C/C(=N\Nc1ccccc1)C(N)=S	5.33%
Cc1ccc(NC(C(N)=O)c2c(C)[nH]c(=O)[nH]c2=O)cc1 (centres unmarked)	9.83%
CCC(=O)N1N=C(c2c(-c3ccccc3)c3cc(Cl)ccc3[nH]c2=O)CC1c1ccco1 (centres unmarked)	0.55%
C/C(=N\NC(=O)C(c1ccccc1)c1ccccc1)c1ccccn1	2.64%
Cc1cccc(/C=N\Nc2nnc(-c3ccccc3)c(=O)[nH]2)c1	-0.0933%
COC(=O)C1C2CCC(C2)C1C(=O)OCC(=O)c1ccc(C)cc1 (centres unmarked)	-8.81%
COC(=O)c1cc(OC(=O)c2ccc(=O)[nH]c2)cc(C(=O)OC)c1	6.38%
COc1ccc(NC(=O)c2csc3c2CCCC3)cc1	6.07%
CN(C[C@@H](CC1CCCCC1)N(C[C@H](Cc1ccccc1)N(CCc1ccccc1)N=O)N=O)N=O.[Na+]	13.8%
CCOc1ccccc1NC(=O)CSc1nc(=O)n(Cc2ccccn2)c2c1CCC2	-15.2%
Cc1ccccc1S(=O)Cc1ccc(C(=O)N2CCN(C(=O)c3ccco3)CC2)o1 (centres unmarked)	21%
O=C(N1CCN(c2ccccc2F)CC1)C12CC3CC(CC(C3)C1)C2	2.92%
CC1=NN(c2ccccc2)C(=O)C1/C=C1\C(=O)NC(=O)N(c2ccc(C)c(C)c2)C1=O (centres unmarked)	4.17%
Cc1onc(-c2ccccc2Cl)c1C(=O)Nc1sc2c(c1C#N)CCC2	1.71%
O=C(Nc1nc2ccc(S(=O)(=O)N3CCCC3)cc2s1)c1ccccn1	-1.87%
CCC(C)NC(=O)c1cc2c(=O)n(CC)c3ccccc3c2s1 (centres unmarked)	9.93%
Cc1onc(-c2ccccc2)c1C(=O)N1CCCCCC1	15.5%
COc1ccc(C(=S)N2CCCC2)cc1C	3.2%
Cc1ccc(S(=O)(=O)NNC(=O)c2cc3cc4ccccc4nc3s2)cc1	5.43%
O=C(Nc1nnc(-c2ccc3c(c2)CCCC3)o1)C1COc2ccccc2O1 (centres unmarked)	9.87%
COc1ccc2c(c1OC)C(=O)N(c1cccc(C(F)(F)F)c1)C2	4.84%

From publication PMC4336329 (PLoS ONE, 2015)
